Results reported in PubChem BioAssay (NCATS).
The inconclusive results got no clear call from the source; some entries with a clear call stand among them for comparison. Potencies of inconclusive entries are left out as doubtful fits. The source made the active and inactive calls. Calls follow the shape of the dose curve; as a rule, active = well fitted inhibition curve with a large enough effect; inconclusive = small, poorly fitted or top-dose-only effect; inactive = no such curve, though single readings can be large or run the other way.

Molecular target: Cytochrome P450 2D6 (Homo sapiens) (UniProt P10635)
Sequence of UniProt P10635 (P10635 whole entry, looked up): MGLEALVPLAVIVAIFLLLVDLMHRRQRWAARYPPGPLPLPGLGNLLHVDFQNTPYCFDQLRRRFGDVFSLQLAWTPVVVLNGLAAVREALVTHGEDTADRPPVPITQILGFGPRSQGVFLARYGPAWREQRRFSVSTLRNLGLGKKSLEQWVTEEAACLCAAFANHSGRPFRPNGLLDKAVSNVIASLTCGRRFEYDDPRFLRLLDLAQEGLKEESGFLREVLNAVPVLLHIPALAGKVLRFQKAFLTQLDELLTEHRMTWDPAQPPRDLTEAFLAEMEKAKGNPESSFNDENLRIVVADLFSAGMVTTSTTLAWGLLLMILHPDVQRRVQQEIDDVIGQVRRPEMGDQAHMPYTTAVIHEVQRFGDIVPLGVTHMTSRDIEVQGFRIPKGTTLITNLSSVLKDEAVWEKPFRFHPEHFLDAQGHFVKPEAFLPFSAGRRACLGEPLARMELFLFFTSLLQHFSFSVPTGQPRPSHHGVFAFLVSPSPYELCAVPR
Experiment: qHTS Assay for Inhibitors and Substrates of Cytochrome P450 2D6 (AID 891);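 also: luciferin methyl ether substrate demethylated by CYP2D6 with NADPH regeneration; nearly all actives have a fitted effect of over 60% in size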
Settings: recombinant CYP2D6, luciferin-ME EGE luminescence; series mostly up to 57.1 µM
Procedure, shortened: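 Human CYP2D6 (5 nM) with 30 uM Luciferin-ME EGE (at Km) in 100 mM KPO4, compound preincubated 10 min, then NADPH regeneration system for 60 min at room temperature. Luciferin read by luminescence; normalized to 1.43 uM quinidine.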
Potency is read from the fitted curve at half-maximal effect; tags tell the direction and shape of the fitted curve.

Row | SMILES | Potency
1 | Cn1cccc1C(=O)N1CCC2(CC1)CN(C(c1ccccc1)c1ccccc1)C2 | active: 3.16 µM
2 | NC(CSS(=O)(=O)O)=N[C@@H]1C[C@H]2CC[C@@H]1C2 | inconclusive [inhibitor, single point]
3 | CN1CCN(c2ncncc2-c2cccnc2)CC1 | inconclusive [inhibitor, partial curve]
4 | O=C(c1cccc(F)c1)N1CCC2(CCN(Cc3ccccc3)CC2)CC1 | active: 7.94 µM
5 | O=C(O)[C@@H]1Cc2c([nH]c3ccccc23)[C@@H](CCCCO)N1 | inconclusive [inhibitor, partial curve]
6 | c1ccc(CCNCc2ccco2)nc1 | inconclusive [inhibitor, partial curve]
7 | Cc1ccc(C)c(/C(=N\N=C(N)N)C2CC2)c1 | inconclusive [inhibitor, partial curve]
8 | COc1cc(C)cc2c(-c3c(O)cc(O)c4c3C[C@H](C)N[C@@H]4C)cc(-c3cc(-c4c(O)cc(O)c5c4C[C@H](C)N[C@@H]5C)c4cc(C)cc(OC)c4c3O)c(O)c12 | inconclusive [inhibitor, single point]
9 | NC(=O)/C(=C\c1ccncc1)c1cccc2ccccc12 | inconclusive [inhibitor, partial curve]
10 | COc1ccccc1CN1CCC2(CC1)CCN(C(=O)c1c(C)noc1C)CC2 | active: 7.94 µM
